Measurements published in PMC4242493.
The other results are listed elsewhere or left out. The list includes weakly bound sequences.

Molecular target: MaxL homodimer (UniProt P61244)
Assay: universal protein-binding microarray (PBM)
Conditions: PBS-based mixture, 10 nM His-tagged protein dimer, 2% milk, 200 ng/uL BSA, 50 ng/uL salmon testes DNA, 0.02% TX-100; detection with Alexa 488 anti-His …; high values mean tight binding; most listed sequences are background and not binding sites; double strand, one strand shown

Chain of UniProt P61244 (P61244 whole entry): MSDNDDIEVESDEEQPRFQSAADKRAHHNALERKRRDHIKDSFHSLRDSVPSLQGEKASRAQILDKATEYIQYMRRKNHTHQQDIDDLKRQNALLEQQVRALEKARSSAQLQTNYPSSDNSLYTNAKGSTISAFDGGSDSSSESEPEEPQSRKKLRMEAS

Sequence	binding signal (normalized occupancy)
AGATTCGC	0.079
CTCCCTAA	0.0737
TGTTCAAA	0.0769
ATGAAGAC	0.0744
CGCCTCCC	0.0717
CACTACTA	0.0788
GATTGACC	0.0763
ATCAACCG	0.0737
AACATCAT	0.0847
AGCCAGAC	0.0684
ACTCTGGG	0.0689
CGACGACA	0.0764
CCTAAACA	0.0822
AAATGTAA	0.0834
CCAGTCGG	0.0704
CACGACAG	0.0802
TCAGGTCA	0.0755
AAGTTTAA	0.0727
AACTCTGG	0.0695
ACTTTCCA	0.0775
GCCCCCAC	0.0825
GGCCGTAA	0.0679
CTCACCTA	0.0723
CCGAATCG	0.0727
GGTGTATA	0.0848

Sequence	binding signal (normalized occupancy)
AAAAATAA	0.0745
ATGATCCG	0.0801
CAAGCGCC	0.0701
CTTGGGAC	0.0664
ACAAGTCC	0.0711
AACGTTCA	0.0836
AATGAGAT	0.0763
CGGATTCA	0.0802
GACGGTCA	0.0718
GGCCGTTA	0.0698
AATCTCCG	0.0702
ACGCCATG	0.102
CGAAAGAG	0.0688
ACTTACGA	0.0726
GAGTCTAA	0.07
CGGCATGC	0.109
GTGACTCA	0.0783
CTTCGCTA	0.0727
ATTTGTAA	0.0789
AAGGACTC	0.071
GCTGTTCA	0.0756
GGTCCATA	0.0786
ATCAAGCG	0.074
ACTGAATC	0.0726
ACATCTTC	0.0843

Sequence	binding signal (normalized occupancy)
ACCGCCCA	0.0692
GTCATGCA	0.0869
AATAACGC	0.0797
CACTTGGA	0.0717
CCCCGTCC	0.0767
TAGCAGAA	0.0746
ACTCCTCG	0.0738
AATACTAA	0.0796
ACAGCGCA	0.0692
AGTGGGTA	0.0721
ATCAGTCC	0.0762
ATCCTTTA	0.0763
ACGTTTGG	0.0806
ACCCCTAC	0.0867
GCGGCAGA	0.0734
ATCTAGAT	0.0728
ATTCCCGC	0.0772
AAGGCTTA	0.0721
CGCGCCCG	0.0682
CGCAGTAG	0.0689
CCTCGGAG	0.0661
GACGGTGC	0.0735
GTAACTTA	0.0742
CACTGATC	0.0773
AGGCGAGA	0.0696

Sequence	binding signal (normalized occupancy)
ATCTATAG	0.0834
AATCATAT	0.0881
AGTGCGAT	0.0772
ATTTGCCA	0.076
GATGAACA	0.0757
CAATCACG	0.0875
AAATCTGC	0.0724
AGTGAAGA	0.0699
TTATCCAA	0.0722
GGGAGTGA	0.0774
CAGTAAGC	0.0728
CCAATTCG	0.0738
CGGTAATC	0.0753
ACTAAGAA	0.0735
ACGATGTA	0.0819
CCCGGTCC	0.0685
AGATCCGA	0.0742
CTATAAGA	0.0839
AGTCAAAC	0.0698
ATGTCGAG	0.082
ATTGTAAG	0.0752
TCTGCCAA	0.0728
AGCAGAGA	0.0749
CAACCTTG	0.0747
AATTTCGA	0.0712

Sequence	binding signal (normalized occupancy)
ATAGTGAT	0.0777
TACTTCGA	0.0724
ACCGACTG	0.0675
CAGTGTTA	0.0765
AGCAAGCG	0.0711
CTCACGGA	0.0748
AGGTCAAT	0.0787
CTTTAGGC	0.0741
AATCTTAT	0.0745
CGAAGCTC	0.0658
GCCTCTGA	0.071
ACCACGAA	0.0771
ATTACTGG	0.0745
ACTGATCG	0.077
CAGTTGAG	0.0686
AGTAGGCC	0.0717
TCATGGCA	0.0816
GCAGGTCC	0.0729
ACGCGCGT	0.0896
TGGTCTAA	0.0714
GTTAACTA	0.0772
GTCTGTCA	0.0714
GCAAGAGC	0.0746
ACGCGGAT	0.0814
ACAGGCAA	0.0787

Sequence	binding signal (normalized occupancy)
CCAACCGG	0.069
GTCGCTCA	0.0755
CCCAGGTA	0.08
GAAACCCC	0.078
ACTAACAA	0.0766
ACCGGTAG	0.0719
GGAAGACC	0.0713
CATAAAGC	0.0734
GTAGTGAC	0.0722
CACATTCG	0.0806
CAGGGATC	0.0711
GAAGTTCC	0.0689
AAGCGGGC	0.0687
GCGGACAA	0.0734
AGATAGAG	0.0744
ATCGTTAG	0.0776
CACATTAG	0.0876
GGCGCAGA	0.0698
CAAGTACA	0.0797
GGCAGGTA	0.0755
ATATCGGC	0.0746
ATTTATAA	0.0772
CCATAACA	0.0834
CCTACACA	0.0861
CATACAGA	0.0796

Sequence	binding signal (normalized occupancy)
CTTGACCA	0.0808
GAGCTTAA	0.0698
GGTGTAAC	0.074
ACTATGCA	0.0816
CTTCTGTA	0.0734
ACACCATA	0.0784
ACATTTCC	0.0772
AATATAGT	0.0787
ATAGTCAA	0.0744
AATTCTAA	0.0742
AGATTTGA	0.0778
AAATCTAA	0.0765
GGATGGCA	0.0835
AGGACTTG	0.0674
AATACATA	0.0877
GCGAAAAC	0.0681
AACACCAC	0.082
GGCACAGA	0.0703
CCTGTGCC	0.0711
AAATCCGG	0.0683
GTGTAAAC	0.084
AGCCATAC	0.078
AAGTAACC	0.0745
ACGGCAAG	0.0727
ATCACCTG	0.0901

Sequence	binding signal (normalized occupancy)
TACTACAA	0.0789
ATCACAGC	0.0808
AGTTACCA	0.0803
ATTCGAGG	0.0723
AATGAGGC	0.0776
ATATATAC	0.0839
CCATGATA	0.0845
ACTATGGG	0.0779
ATTTGTCC	0.0771
ATACCACA	0.089
CACGTCAA	0.0816
ACCGCCAT	0.0822
ATGTGTGC	0.0957
CCAACAAC	0.0758
CCGGGCAC	0.0682
CAACCAAG	0.0759
GTGCACCA	0.0813
ACGTATAT	0.0827
ACCATTCA	0.085
CCATTCTA	0.0759
ACAGCTGT	0.077
AAATTACA	0.0754
GCATAGGC	0.0744
CAGTACGC	0.0725
CGCTTTAA	0.0696

Sequence	binding signal (normalized occupancy)
GGGCTACA	0.0751
TCTATGAA	0.0694
CCTTAGGC	0.0728
CAGAGAAG	0.069
CACTTAAC	0.0724
ACGCTCAA	0.0699
AGTCCTAT	0.0777
CCATTCCC	0.0738
CTAAGTGC	0.0724
CCATAGCG	0.0775
CTTTTCTC	0.0767
GAACTATA	0.0863
CAGTCCGA	0.0726
GCGTGCAC	0.109
ACCCGAGT	0.0687
CATGTTTC	0.0831
ATACCTTC	0.0788
ACGGGGGA	0.0872
AAAATACA	0.0824
AGCTAGGG	0.0743
ACAATGGA	0.0765
ACCCACGC	0.105
GTATAACA	0.085
CCCGAATC	0.0724
GAGGTACA	0.0818

Sequence	binding signal (normalized occupancy)
AAGTGACC	0.0751
ACTATCAA	0.0737
ATGGAAGA	0.0759
ATTATTCA	0.0849
ACATCAAT	0.0847
AGGTGGAT	0.08
GTGGCCGA	0.0781
ATCTGAAT	0.0792
ACGAGGAT	0.0859
CTAGCAGA	0.0658
ATTCGAAT	0.0762
ACTGGGAA	0.0718
ACGTGTGC	0.109
AGGAGGCA	0.0697
GGTTTAGA	0.073
GCGCCGCA	0.0796
GATATCCA	0.0802
ACGAATAT	0.0788
CACTGCCA	0.0766
GCTTCGTA	0.0728
GAAGAATC	0.0698
GGACCTCA	0.0767
CACTTGAG	0.0725
CAGAGTGA	0.0776
CAGTTAAA	0.0713

Sequence	binding signal (normalized occupancy)
ATGGTGGG	0.0857
GCAAGCGC	0.0702
CCAGCGGC	0.068
CAGCGACC	0.0689
CTACCTTA	0.0706
ACGGGGCA	0.0797
AGCTAACC	0.0735
GAGATCCA	0.0758
AATGTCCC	0.0778
GAGTGCGC	0.0765
CGGCTATC	0.0691
ATCTCTCA	0.0769
GACATACA	0.082
AGCAAAAC	0.0703
CTATCAAA	0.0785
ATAATATG	0.089
GGCGTCGA	0.0725
ATTATTGA	0.0802
CTGGCTCA	0.074
GCTCTCTA	0.0715
AAATCTCT	0.0749
CTGTAGAA	0.0797
ATACGGCC	0.0692
ACGCAACA	0.08
GTGACGAA	0.0743

Sequence	binding signal (normalized occupancy)
ACCTAAAT	0.073
AAAACCAG	0.0703
AGCCTCTC	0.0729
AAATGGAA	0.0718
GAAAAGTA	0.076
CCCCGGAC	0.0737
AGTTGACG	0.078
GCCGAAGC	0.069
AAGATATG	0.0777
ATCACGGG	0.0845
AAGGACCT	0.0648
CCAGCGAC	0.0726
GCGCGGCA	0.0732
ACTCTGCT	0.0695
CTCCATAA	0.0817
ATCGCTGG	0.0739
TGTTTGAA	0.0748
CATACCCG	0.0786
TAGATCTA	0.0802
CAAGCCAG	0.0729
AGGGCAGA	0.0748
CCTTGCAG	0.0639
GTATTGAC	0.0759
CAAGTGAC	0.0756
CCGTACAC	0.0886

Sequence	binding signal (normalized occupancy)
GGCACGCA	0.0741
ACGTCAAA	0.0795
AGCGGTAA	0.0718
ATGTTAGG	0.0824
AGCACCTC	0.0722
ACATAAGA	0.0789
GAGGGAGA	0.0736
AATCTCCT	0.0712
AACACAAG	0.082
GACCAAAA	0.0669
CATCTCAC	0.0826
ATCGTGTA	0.0829
AGTCATAG	0.0807
GGGACTAC	0.0801
AGTTTCTA	0.0752
CTTAGTAC	0.0739
AATAACTA	0.0804
GAGCTTGC	0.0649
ATCCGTGC	0.078
GAGTACAA	0.0725
CACTAAAG	0.0674
TATGAAGA	0.0736
TACCAGCA	0.0786
CCTTCCAC	0.0773
CAACGGGG	0.0726

Sequence	binding signal (normalized occupancy)
AGGAGTAC	0.0739
CGTAATAG	0.0793
AAGGGGGT	0.0806
AGCAGTCC	0.0748
ATGCTCCG	0.074
TATACAGA	0.076
TCCACTCA	0.0775
CCGGTAAC	0.0722
GCATGGTA	0.106
ACGAGCTG	0.0751
AGTGTGAG	0.0829
ATGCACAG	0.0865
AAATAGCG	0.0807
ATCGCGTA	0.0764
AACCTTGT	0.0729
CTATTCCC	0.0759
GTTCCTGA	0.071
CCGGATCA	0.0742
GTGGATTA	0.0835
